# Source: PubChem BioAssay AID504466 (National Center for Advancing Translational Sciences (NCATS), 2011)
# Hit rate of the full screen: of about 330,000 compounds, about 4,200 (1.3%) were called active. The shares of active, inactive and inconclusive entries below differ from those in the screen. Calls follow the shape of the dose curve; as a rule, active = well fitted activation curve with a large enough effect; inconclusive = small, poorly fitted or top-dose-only effect; inactive = no such curve, though single readings can be large or run the other way. A potency beside an inconclusive call is a rough fit, not a confirmed value.
# Test: qHTS screen for small molecules that induce genotoxicity in human embryonic kidney (HEK293T) cells expressing luciferase-tagged ELG1; also: nearly all actives have a fitted effect of over 60% in size; as to activity change, positive = activation: % of control where 0% means no effect
# Conditions: HEK293T ELG1-luciferase reporter, luminescence, 16 h; series mostly up to 46 µM; activity change, positive = activation: at the top concentration
# How it was run: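 Quantitative HTS format in 1536-well plates. HEK293T ELG1-luciferase reporter cells receive test compound and are incubated 16 hr at 37 °C, 5% CO2; ONE-Glo added, 30 min room temperature, then luminescence read.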
# Potency is read from the fitted curve at half-maximal effect; tags tell the direction and shape of the fitted curve.
SMILES,Potency,"activity change, positive = activation"
CCS(=O)(=O)NCc1ccc2c(c1)cc(C)n2C,"inconclusive: 32.6 µM [activator, partial curve, poor fit]",
CNS(=O)(=O)c1ccc(NC(=O)c2ccccn2)cc1,"inconclusive: 20.6 µM [activator, single point]",
Cc1ccc(C)c(NC(=O)c2cc(-c3cc(C)ccc3O)n[nH]2)c1,"inconclusive: 11.6 µM [activator, partial curve, poor fit]",
Cc1ccc2nc(N3C(=O)C(O)=C(C(=O)c4ccco4)C3c3ccc(C)o3)sc2c1 (stereo not drawn),"inconclusive: 16.4 µM [activator, partial curve, poor fit]",
O=C(CSc1nc2ccccc2s1)N1CCCCC1,"inconclusive: 13 µM [activator, partial curve]",
CCc1ccc(-c2nc3ccc(Br)cc3c(C(=O)O)c2C)s1,,inactive: -4.33%
C(=N\Nc1nc2ccccc2[nH]1)/c1ccccn1,,inactive: -24.1%
CSc1nc(N)nc2c1ncn2CC(=O)NCc1ccccc1,,inactive: -3.95%
O=C(NC(=S)Nc1cc(C(F)(F)F)ccc1Cl)c1ccccc1,,inactive: 0.841%
O=C(NCCO)c1ccc2c3n(nc2c1)-c1ccccc1CO3,"inconclusive: 7.3 µM [activator, partial curve]",
O=C(Nc1ccc2nc(-c3ccccn3)[nH]c2c1)C1CCCCC1,active: 20.6 µM,
CC1CCc2sc(C(=O)NCc3ccccn3)cc2C1 (stereo not drawn),active: 18.3 µM,
Cc1ccc(Cn2c(SCC(=O)Nc3cc(C)on3)nc3ccccc3c2=O)cc1,"inconclusive: 14.1 µM [activator, partial curve, poor fit]",
COC(=O)c1ccc(COC(=O)c2cnc(Cl)c(Cl)c2)cc1,"inconclusive: 20.6 µM [activator, single point]",
c1ccc(CSc2nnc(-c3cccs3)o2)cc1,"inconclusive: 14.6 µM [activator, partial curve]",
O=C(COC(=O)c1cc(-c2ccccn2)nc2ccccc12)Nc1ncc(C(F)(F)F)cc1Cl,"inconclusive: 29.1 µM [activator, partial curve, poor fit]",
CCCNC(=O)c1cc(-c2ccc(Br)cc2)on1,"inconclusive: 3.66 µM [activator, full curve]",
Cc1cccc(C(=O)N/N=C/c2ccc(OCC(=O)N3CCCCC3)cc2)c1,,inactive: 0.307%
CN(C)c1ccc(C#Cc2ccc3cc(CCCO)oc(=O)c3c2)cc1,"inconclusive: 5.17 µM [activator, partial curve, poor fit]",
COc1cccc(C=Nc2ccccc2C(=O)Nc2nccs2)c1OC,"inconclusive: 16.4 µM [activator, partial curve, poor fit]",
CCOC(=O)C1CCN(C(=O)c2cc3c(=O)n4ccccc4nc3s2)CC1,"inconclusive: 16.4 µM [activator, partial curve]",
Cc1cc(C)c(NC(=O)Cn2nc(-c3ccccc3)nc2-c2ccccc2)c(C)c1,"inconclusive: 32.6 µM [activator, partial curve, poor fit]",
C=CCn1cnc2c(c1=O)c1nc3ccccc3nc1n2/N=C/c1ccccn1,,inactive: -9.53%
c1cncc(-c2noc(CC3CCCCC3)n2)c1,"inconclusive: 18.4 µM [activator, partial curve, poor fit]",

SMILES,Potency,"activity change, positive = activation"
NC(=O)C1=NOC(CNc2ncc(C(F)(F)F)cc2Cl)C1 (stereo not drawn),active: 23.1 µM,
O=C(CC(Nc1ccccc1)C(=O)O)c1ccccc1 (stereo not drawn),"inconclusive: 4.61 µM [activator, full curve]",
COc1ccc(/C=N/Nc2nccnc2Cl)c(OC)c1,"inconclusive: 16.4 µM [activator, partial curve]",
Cc1cccc(C(=O)NNC2=C(C(=O)C(F)(F)F)CCC2)c1O,,inactive: -22.6%
Cc1cc(O)c2c(C)c(CC(=O)N3CCN(C(=O)C4COc5ccccc5O4)CC3)c(=O)oc2c1 (stereo not drawn),"inconclusive: 2.06 µM [activator, partial curve, poor fit]",
CC(C)(CO)NC(=O)CCCOc1ccc(Cl)cc1Cl,active: 11.2 µM,
COc1ccccc1-c1nc(-c2ccc(Br)o2)no1,"inconclusive: 0.731 µM [activator, full curve, poor fit]",
Cn1c(-c2nnn(-c3ccc(F)cc3)n2)cc2ccccc21,active: 5.17 µM,
COc1ccc2c(c1)CCc1c(C(=O)NCC(C)C)noc1-2,active: 13 µM,
NC(=O)C1CCN(C(=O)CCn2c(=O)oc3ccccc32)CC1,,inactive: 1.48%
CN(Cc1nc(-c2cccc(Cl)c2)no1)C1CCOCC1,"inconclusive: 11.6 µM [activator, partial curve]",
ClCC1CSC(=NC23CC4CC(CC(C4)C2)C3)O1 (stereo not drawn),,inactive: -2.6%
CC(=O)Nc1ccc(NC(=O)c2c(C)nc3ccccn23)cc1,,inactive: 4.71%
CC(=O)c1ccc(NC(=O)C(C)N(C)CC(=O)Nc2ccc(N3CCOCC3)cc2)cc1 (stereo not drawn),"inconclusive: 1.16 µM [activator, single point]",
O=C(N/N=C/c1ccccn1)c1ccc(Cl)cc1,active: 18.3 µM,
CCOC(=O)c1c(C)[nH]c(N=Nc2ccccc2C)c1C,active: 23.1 µM,
Nc1c(-c2ccccc2)cnn1-c1ccccc1,"inconclusive: 9.2 µM [activator, partial curve]",
CCOc1ccc(NC(=O)Nc2nnc(CC(=O)NCc3ccccc3)s2)cc1,"inconclusive: 23.1 µM [activator, single point]",
CN(C)/C=C/C(=O)c1ccc(Br)s1,"inconclusive: 23.1 µM [activator, partial curve, poor fit]",
O=C(Nc1ccccc1C(F)(F)F)c1cc2ccccc2o1,active: 10.3 µM,
O=c1c(-c2ccc3c(c2)OCCO3)coc2cc(OC3OC(CO)C(O)C(O)C3O)ccc12 (stereo not drawn),"inconclusive: 1.64 µM [activator, partial curve]",
O=C(CSCc1cccs1)N1CCCC1,active: 16.4 µM,
Cc1c(OCc2ccc([N+](=O)[O-])cc2)ccc2c3c(c(=O)oc12)CCC3,"inconclusive: 4.61 µM [activator, partial curve]",
COc1ccc(-c2cc3nc4n(c(=O)c3s2)CCC4)cc1,active: 0.13 µM,
